The full ranking holds about 33,000 sequences; the median of “E-score (-0.5 to 0.5)” is about -0.01, and the highest 2% start at about 0.26. The list shows a part of the results.
Molecular target: Ste12 (UniProt P13574)
Test: PBM E-score (8-mer binding enrichment) (E-score (-0.5 to 0.5)); higher = stronger / more preferred TF binding; most listed sequences are background and not binding sites
Details: protein concentration: 200 nM; construct: GST-DNA-binding domain
How it was run: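 Each ungapped eight-base word and its reverse complement, pooled, received an E-score from the Universal PBM Analysis Suite. Underlying scans, normalised with masliner, recorded fluorescent anti-GST bound to GST-tagged yeast transcription factors. These were applied at about 100-200 nM to universal all-10-mer Agilent arrays double-stranded by primer extension.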

Row | Sequence | PBM E-score
1 | AGCAGAAC | -0.0673
2 | CGTATTGC | -0.118
3 | ACGTTGGC | -0.0145
4 | GACCATAC | -0.00275
5 | GGCGACCC | 0.0144
6 | CGCTGACC | -0.144
7 | AGTTAAGA | 0.115
8 | AGCACTTG | -0.326
9 | GACTGGTA | -0.0655
10 | AAACGCAG | 0.00077
11 | AAGTTCAG | 0.114
12 | CTAGCACC | 0.0904
13 | ACCTTCCC | 0.102
14 | CAAGTGTA | -0.079
15 | ACAATCCC | 0.164
16 | AAGTTGGT | 0.00975
17 | GCGCGCAA | 0.236
18 | CTACTATA | 0.0831
19 | ACAAGGAA | 0.242
20 | GTACCGGA | -0.0824
21 | GGGGGTTA | -0.168
22 | CCGGGATA | -0.0779
23 | CGCCGTCC | -0.168
24 | AGTACTCA | -0.074
25 | CCGGTCTC | -0.016

Row | Sequence | PBM E-score
26 | AGCATGCG | -0.217
27 | ACTAGAGA | -0.043
28 | CTATGTGC | -0.18
29 | CGGGCGAC | -0.111
30 | AGTCGTGA | -0.0721
31 | ATATTTGA | 0.117
32 | ATGCCTTA | -0.0464
33 | AGTCACCA | -0.182
34 | AATGGCAG | -0.0267
35 | AGGTGACA | -0.0124
36 | ACATAACA | 0.0867
37 | GGTCCTCA | -0.163
38 | AATCATGT | 0.141
39 | GCACGCCC | -0.0177
40 | GCCCATGA | 0.0702
41 | CTAAGCTC | -0.106
42 | ATGGTGCG | -0.0292
43 | ACGGCCCT | -0.257
44 | CACTTAAG | -0.0327
45 | GAGTTTGC | 0.0562
46 | CATGAGTA | -0.0589
47 | AGGATTCG | -0.0137
48 | AGCTTCGA | -0.193
49 | ACTTAAGT | 0.0329
50 | ACAGAGCG | -0.132

Row | Sequence | PBM E-score
51 | ATTGTGCG | 0.01
52 | TCTGGACA | -0.142
53 | ACTGTCTC | -0.0447
54 | ACAGACCG | -0.0542
55 | ACACATCA | -0.0841
56 | GAGGGGAC | 0.0916
57 | CGATTAAC | -0.181
58 | CATTACCG | -0.16
59 | CCCGTCTA | -0.125
60 | GAAACAGC | 0.232
61 | CCGCTAAC | 0.0696
62 | GCGGAGTA | -0.183
63 | ACCCGGGA | -0.0385
64 | CACAATCG | 0.0959
65 | CCATGGCA | -0.0594
66 | TAGGCGCA | 0.0356
67 | CCTGCTAC | 0.0937
68 | ACTCCGCA | -0.142
69 | ACAGAACA | 0.152
70 | CCCTGATC | -0.167
71 | CTGTCATA | -0.0309
72 | ACCGGTCG | 0.0556
73 | CCCATCAC | -0.0321
74 | CGAGAAGC | -0.0149
75 | ATCACAGC | 0.0176

Row | Sequence | PBM E-score
76 | AATGGGCC | 0.0729
77 | CTCAACAG | -0.0353
78 | CCGGGTGC | -0.0677
79 | CAAATGTA | 0.242
80 | CTATCTTA | 0.0337
81 | GCTAAATA | -0.00585
82 | GAAGACGC | -0.11
83 | CACCCCGG | -0.0768
84 | AATCACAC | 0.0306
85 | GGAGTTAC | -0.209
86 | GACGATTA | -0.0924
87 | CCGACCCG | 0.0798
88 | CAATATCA | 0.0717
89 | GTCAGAAC | -0.0299
90 | CAGCGGAA | 0.0151
91 | AGGTTACT | 0.0862
92 | AGACTCTG | -0.0653
93 | AAAAATGT | 0.223
94 | AAATCATC | 0.107
95 | GCCATAGC | -0.204
96 | CCTGTAAC | 0.191
97 | ACGTTGCG | 0.0665
98 | CCACAAAA | 0.167
99 | AGGAAATC | 0.0869
100 | ACTATAAT | 0.274

Row | Sequence | PBM E-score
101 | CACTATGA | -0.127
102 | CCCAACAC | 0.0704
103 | AGAAAAAT | 0.062
104 | ACTCGAGG | -0.0419
105 | CCTTGCCG | -0.0344
106 | GACAGCGC | 0.0396
107 | AGCGGAAC | -0.0118
108 | GGACAATA | 0.186
109 | ATAGCGGA | -0.0903
110 | CTAGCTTA | 0.0454
111 | CTGCGACC | 0.0572
112 | AACGCCGA | 0.121
113 | TTATCCAA | 0.0779
114 | GACGGAAC | -0.0863
115 | AGCAGTGG | 0.0371
116 | AGGTCTGA | -0.0605
117 | ACGTGTGC | -0.242
118 | AAAGTCGG | -0.131
119 | AGAATTGA | 0.178
120 | GTTAGTGA | -0.041
121 | CCAAGCAA | 0.00552
122 | CACGTGCC | -0.112
123 | AGTTAGAG | 0.0692
124 | CTGTTTCC | 0.0865
125 | AATGATCC | -0.0573

Row | Sequence | PBM E-score
126 | AGAACAAG | 0.0467
127 | AAGTAGCT | -0.247
128 | GTTGTATA | 0.0588
129 | AAGAGGCA | -0.00294
130 | ACCCATGG | -0.0496
131 | CGATATTA | 0.207
132 | CCATGAGG | -0.134
133 | GCAGAAAA | 0.241
134 | CGTTAGGA | 0.0933
135 | CGGTTTAA | 0.00247
136 | CACTATTA | 0.0024
137 | CATCAGAC | 0.0597
138 | ACGCCCAT | 0.045
139 | GCCTTAAA | 0.184
140 | ACATGTGG | 0.0893
141 | AAGTTGGA | 0.0207
142 | CGGAAGAC | 0.052
143 | CTTTAGCA | -0.0719
144 | GAGCTGAC | -0.0301
145 | CGCGGCCC | -0.0236
146 | TCATACGA | 0.177
147 | CTTTCATC | 0.0458
148 | ATTGAAAA | 0.352
149 | ATCCCGAT | 0.179
150 | GCTAATTA | 0.0451

Row | Sequence | PBM E-score
151 | GCGATCGA | 0.0497
152 | ATCAAACG | 0.197
153 | ACTTCGGC | -0.0993
154 | GTGGTAAA | -0.0179
155 | GATTCTGC | 0.0363
156 | CAGATTCA | -0.319
157 | ACCCTTCC | -0.105
158 | CACGGTCC | -0.197
159 | CCACTTCA | -0.0451
160 | ACCGTGCA | -0.108
161 | AAAAACTC | 0.142
162 | CCAGAATA | 0.137
163 | AACATCTA | 0.0785
164 | CCAACTAA | 0.00906
165 | GTAGAGAA | 0.0206
166 | AGCTCCCA | -0.147
167 | ATTACTGC | -0.0248
168 | GTTTCGTA | 0.248
169 | GGGGCCCC | 0.0827
170 | CTTCCGAC | -0.105
171 | CTTATACC | 0.0136
172 | AGTCTAAA | 0.0666
173 | CCAGAAAC | 0.147
174 | ACCAACTC | -0.0963
175 | ACGCCAGT | -0.084

Row | Sequence | PBM E-score
176 | ACAATCAG | 0.0185
177 | GGGTCTTA | 0.0466
178 | CACGGCAC | -0.113
179 | CACTTAAC | -0.121
180 | ACCTCCGT | -0.207
181 | GTACGTTA | 0.0372
182 | ATTATAAT | 0.218
183 | CTTGTGGC | -0.0399
184 | CTCGAGAC | 0.0838
185 | ATCAACTC | 0.00506
186 | CCGCGCGA | 0.169
187 | GTTATATA | 0.215
188 | TGTACGAA | 0.0665
189 | CAGTAGGC | -0.0958
190 | AACCCAAG | 0.0412
191 | CGGGGCGA | 0.163
192 | AGTACGAT | 0.0966
193 | GAAGCAAA | -0.0245
194 | AAGCGGCA | 0.138
195 | AAGTTGCA | -0.0946
196 | GAGATATA | 0.039
197 | ATTCCTTC | 0.162
198 | ATCCACAA | 0.0176
199 | CACGTCGC | -0.0469
200 | GCAGGAGC | -0.143

Row | Sequence | PBM E-score
201 | CAGCTGAC | -0.0464
202 | CACACTCG | 0.138
203 | ACGGCAGT | -0.142
204 | CGTTGTGC | -0.177
205 | AAGGCGAC | -0.133
206 | CTATCGGC | -0.0597
207 | CCCCTGTA | 0.0764
208 | CAATCAAA | 0.211
209 | AACAATCC | 0.0898
210 | ACACTAAT | 0.169
211 | CGGCTGTC | -0.0342
212 | CCCGGCTC | -0.115
213 | CGAGCGTC | 0.0438
214 | CCTTCGAA | 0.0143
215 | AGACTCTA | 0.0686
216 | TAGATTAA | 0.149
217 | AAGCCTCG | -0.0104
218 | GATCAGAC | 0.02
219 | CCGCCCGC | 0.181

From the supplement of paper PMC3334620
